Source: patent US20130096135A1, “Selected Inhibitors of Protein Tyrosine Kinase Activity” (METHYLGENE INC., priority 2011, published 2013)
The name of at least one read-out is uncertain.

test system: Choroidal Neovascularization (CNV); test: In vivo choroidal neovascularization (CNV) model; set-up: species or system Brown-Norway rats; details: dose 3 nmol/eye, injection into right eye on Day 3, CNV area on Day 10, vs vehicle

In order of rising “Inhibition of CNV (%)” value:
1. CCCC(=O)OCC(=O)N1CCN(Cc2ccc(-c3cc4nccc(Oc5ccc(NC(=O)NC6CC6)cc5F)c4s3)nc2)CC1 [Compound 79, 2-(4-((6-(7-(4-(3-Cyclopropylureido)-2-fluorophenoxy)thieno[3,2-b]pyridin-2-yl)pyridin-3-yl)methyl)piperazin-1-yl)-2-oxoethyl butyrate]  18.1%
2. CN(C)CCNC(=O)[C@@H]1CCCN(Cc2ccc(-c3cc4nccc(Oc5ccc(NC(=O)NC6CC6)cc5F)c4s3)nc2)C1 [Compound 10, (R)-1-((6-(7-(4-(3-Cyclopropylureido)-2-fluorophenoxy)thieno[3,2-b]pyridin-2-yl)pyridin-3-yl)methyl)-N-(2-(dimethylamino)ethyl)piperidine-3-carboxamide]  20.3%
3. CNCC(=O)N1CCN(Cc2ccc(-c3cc4nccc(Oc5ccc(NC(=O)NC6CC6)cc5F)c4s3)nc2)CC1 [Compound 28, 1-Cyclopropyl-3-(3-fluoro-4-(2-(5-((4-(2-(methylamino)acetyl)piperazin-1-yl)methyl)pyridin-2-yl)thieno[3,2-b]pyridin-7-yloxy)phenyl)urea]  20.4%
4. COCCOCCOC(=O)N1CCN(Cc2ccc(-c3cc4nccc(Oc5ccc(NC(=O)NC6CC6)cc5F)c4s3)nc2)CC1 [Compound 75, 2-(2-Methoxyethoxy)ethyl 4-((6-(7-(4-(3-cyclopropylureido)-2-fluorophenoxy)thieno[3,2-b]pyridin-2-yl)pyridin-3-yl)methyl)piperazine-1-carboxylate]  20.8%
5. O=C(Nc1ccc(Oc2ccnc3cc(-c4ccc(CN5CCCC(C(=O)NC[C@@H](O)CO)C5)cn4)sc23)c(F)c1)NC1CC1 (stereo partly drawn) [Compound 9, 1-((6-(7-(4-(3-Cyclopropylureido)-2-fluoro-phenoxy)thieno[3,2-b]pyridin-2-yl)pyridin-3-yl)methyl)-N-((R)-2,3-dihydroxypropyl)piperidine-3-carboxamide]  21.1%
6. C[C@@H]1CN(Cc2ccc(-c3cc4nccc(Oc5ccc(NC(=O)NC6CC6)cc5F)c4s3)nc2)CCN1C(=O)CO [Compound 33]  26.5%
7. O=C(Nc1ccc(Oc2ccnc3cc(-c4ccc(CN5CCCC(C(=O)N6CC[C@H](O)C6)C5)cn4)sc23)c(F)c1)NC1CC1 (stereo partly drawn) [Compound 8, 1-Cyclopropyl-3-(3-fluoro-4-(2-(5-((3-((S)-3-hydroxypyrrolidine-1-carbonyl)piperidin-1-yl)methyl)pyridin-2-yl)thieno[3,2-b]pyridin-7-yloxy)phenyl)urea]  26.9%
8. CN(C)CCNC(=O)[C@H]1CCCN(Cc2ccc(-c3cc4nccc(Oc5ccc(NC(=O)NC6CC6)cc5F)c4s3)nc2)C1 [Compound 13, (S)-1-((6-(7-(4-(3-Cyclopropylureido)-2-fluorophenoxy)thieno[3,2-b]pyridin-2-yl)pyridin-3-yl)methyl)-N-(2-(dimethylamino)ethyl)piperidine-3-carboxamide]  34.4%
9. COCC(=O)N1CCN(Cc2ccc(-c3cc4nccc(Oc5ccc(NC(=O)NC6CC6)cc5F)c4s3)nc2)CC1 [Compound 32, 1-Cyclopropvl-3-(3-fluoro-4-(2-(5-((4-(2-methoxyacetyl)piperazin-1-yl)methyl)pyridin-2-yl)thieno[3,2-b]pyridin-7-yloxy)phenyl)urea]  35.2%
10. CC(C)C(=O)OCC(=O)N1CCN(Cc2ccc(-c3cc4nccc(Oc5ccc(NC(=O)NC6CC6)cc5F)c4s3)nc2)CC1 [Compound 80, 2-(4-((6-(7-(4-(3-Cyclopropylureido)-2-fluorophenoxy)thieno[3,2-b]pyridin-2-yl)pyridin-3-yl)methul)piperazin 1-yl)-2-oxoethyl isobutrate]  35.5%
11. C[C@@H](O)CN1CCN(Cc2ccc(-c3cc4nccc(Oc5ccc(NC(=O)NC6CC6)cc5F)c4s3)nc2)CC1 [Compound 29, (R)-1-Cyclopropyl-3-(3-fluoro-4-(2-(5-((4-(2-hydroxypropyl)piperazin-1-yl)methyl)pyridin-2-yl)thieno[3,2-b]pyridin-7-yloxy)phenyl)urea]  44.7%
12. CN(CCO)C(=O)[C@@H]1CCCN(Cc2ccc(-c3cc4nccc(Oc5ccc(NC(=O)NC6CC6)cc5F)c4s3)nc2)C1 [Compound 12, (R)-1-((6-(7-(4-(3-Cyclopropylureido)-2-fluorophenoxy)thieno[3,2-b]pyridin-2-yl)pyridin-3-yl)methyl)-N-(2-hydroxyethyl)-N-methylpiperidine-3-carboxamide]  57.8%
13. C[C@@H]1CN(C(=O)CO)CCN1Cc1ccc(-c2cc3nccc(Oc4ccc(NC(=O)NC5CC5)cc4F)c3s2)nc1 [Compound 26, (R)-1-Cyclopropyl-3-(3-fluoro-4-(2-(5-((4-(2-hydroxyacetyl)-2-methylpiperazin-1-yl)methyl)pyridin-2-yl)thieno[3,2-b]pyridin-7-yloxy)phenyl)urea]  64.8%
14. CC(=O)OCC(=O)OCC(=O)N1CCN(Cc2ccc(-c3cc4nccc(Oc5ccc(NC(=O)NC6CC6)cc5F)c4s3)nc2)CC1 [Compound 34, 2-(4-((6-(7-(4-(3-Cyclopropylureido)-2-fluorophenoxy)thieno[3,2-b]pyridin-2-yl)pyridin-3-yl)methyl)piperazin-1-yl)-2-oxoethyl 2-acetoxyacetate]  72.1%
15. CC(C)(O)C(=O)N1CCN(Cc2ccc(-c3cc4nccc(Oc5ccc(NC(=O)NC6CC6)cc5F)c4s3)nc2)CC1 [Compound 35-A, 1-Cyclopropyl-3-(3-fluoro-4-(2-(5-((4-(2-hydroxy-2-methylpropanoyl)piperazin-1-yl)methyl)pyridin-2-yl)thieno[3,2-b]pyridin-7-yloxy)phenyl)urea]  74.2%
16. C[C@H](O)CN1CCN(Cc2ccc(-c3cc4nccc(Oc5ccc(NC(=O)NC6CC6)cc5F)c4s3)nc2)CC1 [Compound 30]  82.0%

same assay, conditions: dose 10 nmol/eye, injection into right eye on Day 3, CNV area on Day 10, vs vehicle

In the case of `COCCOCCOCC(=O)NC1CCN(Cc2ccc(-c3cc4nccc(Oc5ccc(NC(=O)NC6CC6)cc5F)c4s3)nc2)CC1` [Compound 31], the “Inhibition of CNV (%)” value was 74.9%.
